# This is one part of the list. These are enrichments in a pooled selection; single values are uncertain.
# Test system: SARS-CoV-2 3CLpro (nsp5)
# Assay: substrate phage enrichment score (protease-eluted vs HEPES control, +1 offset) (ratio); higher = better cleaved substrate
# Details: selection round: 4; protease elution time: 15 min
# Procedure: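 Random heptapeptide substrate phage display (M13 pIII fusion, heptapeptide between an N-terminal biotinylated AviTag GLNDIFEAQKIEWHE and pIII; phages immobilised on streptavidin) eluted by cleavage with 50 nM protease in 20 mM HEPES at 37 °C. Selected phages were NGS sequenced, and the enrichment score is (reads in protease sample + 1)/(reads in HEPES blank-selection control + 1).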
row,Substance,substrate phage enrichment score
1,LLNLPND,7
2,RQPDCTQ,0.148
3,NCSAPRS,0.2
4,SNQSLSC,2.14
5,TTAHHHH,0.292
6,ASRAGCG,> 32
7,EGTFNLD,0.281
8,GATAHHH,0.211
9,PPAHHHH,1.09
10,DRRDKLV,1.73
11,TKSTLSG,0.688
12,WKKTHLS,> 48
13,HCITVTR,14.7
14,GNRAEMS,2.29
15,EHPVWQE,2.25
16,TPGAMKS,> 50
17,MSAAHHH,0.74
18,VCGEAYA,6.67
19,YPTNGNH,2.43
20,ECSKHVT,> 22
21,KASHSRA,0.069
22,SPSAHHH,0.3
23,AAPAMSH,> 24
24,PIYSPKS,1
25,IRTPGCR,> 22

row,Substance,substrate phage enrichment score
1,NKSILTQ,2.12
2,AHLSTDG,> 26
3,STEMANP,2.45
4,TNLQSSW,19.5
5,RNRDLLI,> 26
6,TQTTTLQ,> 28
7,DRAAHHH,0.0976
8,NSSTTPR,0.667
9,HSELSFQ,4.83
10,PTESIKQ,0.234
11,RNTRIPT,> 34
12,CSDAHKP,1.75
13,LPHHGQQ,> 33
14,SATFHGQ,3.3
15,AALKHWQ,> 44
16,LMRPHII,3.67
17,LGRGTKF,> 21
18,TGVTDPL,2.11
19,WRPHIII,1.6
20,PSQGKCP,> 29
21,IRPHIII,0.802
22,VNFPKSP,1.43
23,HNICDQR,1.33
24,TYRDPLP,> 21
25,SGSESLQ,0.273

row,Substance,substrate phage enrichment score
1,KYSESRQ,0.12
2,HNVLQSG,> 28
3,EDVWVCR,4.4
4,TSESPGR,> 30
5,GERRNRD,> 25
6,EPQRKDG,3.6
7,PQTGPYA,> 28
8,CNAPQHF,3.83
9,RLHDLRR,3.6
10,AHATEAC,> 44
11,NESFQMT,5.2
12,PTSAAHH,> 21
13,IRSSQCT,> 30
14,CELITTS,2.25
15,LEQKLIS,18.5
16,AWPKLGC,> 43
17,IAGEVRS,0.132
18,WRSQDMK,0.286
19,TRTCTLQ,> 26
20,PGGQRGC,> 87
21,CRRTLQW,2.27
22,NYGNLKQ,19.9
23,LRFFRRR,> 44
24,STVQPNS,2.88
25,KESVICG,7.95

row,Substance,substrate phage enrichment score
1,TTKLQAS,> 110
2,HCQPGLM,> 27
3,RQTTRQH,> 36
4,RSFERLQ,> 78
5,TSGEKSC,4.83
6,MSQGGSA,10.5
7,EEQAARI,> 22
8,VEELGRS,8.57
9,AHFQGGS,2.95
10,DEVIRAT,2.14
11,AQTLKHH,> 26
12,AIRNSLC,5.5
13,TATIPQI,23
14,PHASCSL,> 47
15,VKHRGGR,> 26
16,DPTLTCP,7
17,PHTSRMT,> 27
18,YKTRCQN,1.42
19,VYGCLMQ,> 28
20,HNRSNRE,> 28
21,TPTMCPR,3
22,ELRSCLC,1.49
23,SRDGSAA,> 23
24,GPRTNFQ,> 30
25,YTCPWRQ,0.421

row,Substance,substrate phage enrichment score
1,CAPKSAR,6
2,YPDGSFK,3.47
3,LSSRLQS,> 164
4,SAAAQHQ,1.64
5,CIGVPKQ,0.56
6,VPSSCLQ,128
7,AKFQSCP,> 21
8,ESVELQA,> 68
9,TPGGEFN,5
10,TNLRMGP,1.89
11,SDKARTT,> 43
12,QAQQTAT,15
13,SCIENSR,> 24
14,LNPRTKP,> 22
15,LTPSVRM,> 22
16,SQSNAAE,0.6
17,GHRQKHD,0.25
18,CQRNRSY,0.0833
19,SSGRHNR,0.714
20,ADHKMTS,0.353
21,AAECRHG,> 22
22,PVRAHLQ,> 47
23,IAATPSK,10.2
24,GSRVMLQ,> 32
25,SQGVKLQ,> 194

row,Substance,substrate phage enrichment score
1,RQCKPVG,3.8
2,VPNELLK,> 24
3,PYLPTQP,> 35
4,RDVSSKG,> 21
5,RQDFQGG,7.88
6,RRNAEFY,> 31
7,EGTRCNN,19.7
8,ACGKTKV,6.17
9,VESLSAP,1.2
10,SAEPLRN,0.233
11,KETGATR,12
12,VHSSAYG,2.38
13,CNPLTRR,3.83
14,DVGPENG,1.64
15,KTKMGRH,4.39
16,SPIEPQW,> 24
17,LLRDGCN,1
18,ISRLSYG,> 27
19,RTNPTSR,> 23
20,TSATILQ,> 44
21,TGEQGCT,> 47
22,SGQAQGQ,32
23,RQSSAQM,> 21
24,LSTTTQD,> 25
25,IQAAHHH,0.289

row,Substance,substrate phage enrichment score
1,CPQANFQ,38.3
2,KTAAHHH,0.45
3,RVAPTRA,0.467
4,QLKPITD,23
5,LNGQEDH,> 29
6,QLSRPAV,0.667
7,PKAELKK,9
8,RKNAVLQ,> 276
9,STDWSTP,4.5
10,KEVQGPE,> 70
11,NRAPRLQ,> 195
12,CNAWTKN,> 23
13,LDREAAH,> 22
14,ALTRPGQ,> 67
15,AETNCSR,2.07
16,HTMPNLQ,> 173
17,LPSGHSL,1.5
18,PCKFGWQ,> 36
19,KNSHCNV,3.07
20,TPRYVNQ,1.2
21,TERTTLQ,> 224
22,TKIPFYE,0.846
23,SPNRQNG,0.531
24,DTYTRMH,8.37
25,TLRRHPG,> 27

row,Substance,substrate phage enrichment score
1,PGSCLKT,1.36
2,NAGHCWM,0.692
3,TEFTDSS,0.121
4,PETCRSM,10.8
5,ELNFQGG,2.5
6,ARHTELQ,71.5
7,MGSCVLH,32.5
8,GSNRPMH,10
9,VNAAHPQ,0.846
10,TEDPTPG,13
11,LIPETPW,> 34
12,VLNPAPR,12
13,YNTAAHH,13.5
14,TTREPRG,9.33
15,EPHNLPS,5.75
16,RTRGQFG,14
17,QRSGACR,6.31
18,QLDRSRS,0.438
19,SPHLTCV,> 34
20,SHRHGSR,> 24
21,VLLQCDW,> 28
22,EQGDLYR,3.4
23,VEDQPGT,2.4
24,EVPTQQR,2.55
25,GTKPLEV,> 29

row,Substance,substrate phage enrichment score
1,VTDFGLR,1.18
2,TQKNWPG,> 27
3,ARHVACG,4.25
4,AEATQRL,5.5
5,VSSTQYP,> 41
6,LPRLRLQ,12.2
7,ECRVKLQ,> 77
8,FSAAAHH,1.43
9,LSEAAHH,4
10,CNARPVT,5
11,RRDSARL,13.7
12,SLLQSKQ,37.5
13,VDTQTSP,4.5
14,RPTTVLR,13.7
15,PGNGTLS,0.964
16,QCDTQAT,> 21
17,NRSEQWS,5.5
18,SEHAAKY,> 37
19,LCSTACG,1.36
20,YPVNMQV,> 25
21,PAVHMQG,7.75
22,RAERHPL,10
23,SRKDARD,> 36
24,REDPPPK,> 21
25,KARTRDT,1.67

row,Substance,substrate phage enrichment score
1,GCTPGQL,17.5
2,CCTSSLQ,> 24
3,AYVTTNG,2.45
4,ENQTHVY,0.316
5,PKACLTT,8.33
6,EAWSSPR,3.86
7,SASSKSG,3.14
8,PKSASSE,3.1
9,NGTRSRQ,2.45
10,TALDRAR,0.538
11,GCAAAHH,0.53
12,SPGQATE,9.67
13,TGACPLR,> 120
14,NAWYEQG,0.438
15,ECSSSAD,0.261
16,PISGLQQ,0.706
17,SIGRSRD,> 31
18,QRHSCML,1.17
19,KGPQMSR,> 64
20,TGRCHRQ,6.6
21,LTSPLTT,1.44
22,NCTMRSS,0.087
23,VEADTRN,0.389
24,PTQFSAG,2.43
25,SQASSSG,3.4

row,Substance,substrate phage enrichment score
1,VRHEFFR,> 34
2,LKCMQKH,> 45
3,RDGSEAH,55
4,QNRRTPL,0.333
5,FCQKEGR,> 24
6,SWDGVTE,> 50
7,LELHSQR,1.42
8,AFPYGDD,3.29
9,GSQPDYY,4.5
10,CVLGETT,4.82
11,EVWIDET,> 71
12,KHVRACH,0.25
13,NCGRALT,8
14,QIHLGGP,> 33
15,CPLLHRQ,0.302
16,HDLFSRS,10.5
17,DCRPDPR,5.07
18,VGHAMTG,7
19,IKCETLQ,> 75
20,THLQKHS,0.391
21,SAAAHNQ,1.48
22,CRYWYLG,> 28
23,ETWPGQG,> 25
24,AVLQSGR,> 34
25,RCTQRVK,4.6

row,Substance,substrate phage enrichment score
1,VGRSTCL,1.52
2,ARTKLQA,> 23
3,RHVKAQA,> 32
4,LLNMAPD,> 21
5,SSRRTNG,> 39
6,CAAAHQN,0.812
7,SAAAQQH,1.67
8,AYNLSGP,> 90
9,NAGRSIP,11.7
10,SQNLIFQ,> 36
11,IAIRHSW,3.4
12,PEAPHDG,5.4
13,GILRDAE,1.94
14,NTRLISN,2.43
15,LCESPPE,> 36
16,THAAHHH,2.89
17,ACAVGPE,0.833
18,VCLQGST,> 30
19,CIWSNAQ,2.24
20,RKQSTLQ,> 109
21,GTTCRPS,0.941
22,SSRAPLR,46
23,ARHCAGC,0.486
24,AAGSSIQ,> 21
25,RDVRTAN,> 31

row,Substance,substrate phage enrichment score
1,QTLCCKW,0.842
2,TTHDMNK,> 29
3,PVCGSNT,11.5
4,RSEAYET,> 24
5,PLTGDIR,> 66
6,PESMQSQ,> 35
7,SICTYSR,> 21
8,QQPGDRD,2.25
9,AASAHQT,10.5
10,KSRCAEG,0.562
11,NSMNTPC,23.7
12,LSNAGQT,6.67
13,PACAASC,> 47
14,PDEFPQS,7
15,LNGNKRD,> 23
16,NGRSNQR,2.79
17,ELSPNRT,> 25
18,PIPRYAP,2.11
19,SLSGRIR,7.8
20,TPCTSPK,> 58
21,KGCCLQA,40
22,MTQAPGP,2.44
23,QLDSVLS,> 21
24,PRALGPV,0.389
25,GSAAAQH,0.906

row,Substance,substrate phage enrichment score
1,RCKSEGI,> 26
2,SVLQGLR,4
3,TCGCRPQ,> 33
4,PSRTWAS,> 22
5,ENDVIHR,2.58
6,KHEHVCS,1.36
7,VSRDEIF,3
8,RHPNMMA,> 25
9,ECQIGCP,0.0526
10,KSRAAEQ,20.7
11,NSSLEKA,7.33
12,VQTMETR,0.923
13,LGNPVQP,> 22
14,GRTAETR,> 28
15,SNQSHVR,0.471
16,KTRVMSE,> 38
17,CRVCMHR,1.4
18,ASVILQA,> 34
19,LVQPNVM,2.57
20,DHHHHHG,0.625
21,SDCLTDR,1.82
22,YPSESMK,> 73
23,YKQCRSG,> 23
24,LSAAAHH,1.06
25,VSGQNLG,6.83

row,Substance,substrate phage enrichment score
1,AILQSQT,16.5
2,HAATPES,0.119
3,ARTEQNT,0.923
4,RHLNALQ,> 52
5,THERTDT,3.95
6,LNSGESC,2.42
7,DSDQKLI,3.79
8,LKCEFSR,> 29
9,WYAPRQG,0.278
10,AIAAPFR,> 43
11,RAVPASM,> 24
12,KHGDAYT,> 23
13,QDFQGGS,0.444
14,HPAVLHR,9.45
15,RVSAHHH,> 35
16,RMTSALD,> 21
17,PEAAHHH,1.4
